Positions count from the first letter of the chain named. These are yes or no findings as the source states them, for the method shown. Binding seen in cells or lysates may run through a third protein. Some binding calls cover weakened binding; strength is not graded here. For some assays here: Where a sequence is shown, tags or fusion partners need not be part of it.
T1: EML3 (untagged mouse Eml3 expression construct) (mouse) (UniProt Q8VC03)
T1 sequence: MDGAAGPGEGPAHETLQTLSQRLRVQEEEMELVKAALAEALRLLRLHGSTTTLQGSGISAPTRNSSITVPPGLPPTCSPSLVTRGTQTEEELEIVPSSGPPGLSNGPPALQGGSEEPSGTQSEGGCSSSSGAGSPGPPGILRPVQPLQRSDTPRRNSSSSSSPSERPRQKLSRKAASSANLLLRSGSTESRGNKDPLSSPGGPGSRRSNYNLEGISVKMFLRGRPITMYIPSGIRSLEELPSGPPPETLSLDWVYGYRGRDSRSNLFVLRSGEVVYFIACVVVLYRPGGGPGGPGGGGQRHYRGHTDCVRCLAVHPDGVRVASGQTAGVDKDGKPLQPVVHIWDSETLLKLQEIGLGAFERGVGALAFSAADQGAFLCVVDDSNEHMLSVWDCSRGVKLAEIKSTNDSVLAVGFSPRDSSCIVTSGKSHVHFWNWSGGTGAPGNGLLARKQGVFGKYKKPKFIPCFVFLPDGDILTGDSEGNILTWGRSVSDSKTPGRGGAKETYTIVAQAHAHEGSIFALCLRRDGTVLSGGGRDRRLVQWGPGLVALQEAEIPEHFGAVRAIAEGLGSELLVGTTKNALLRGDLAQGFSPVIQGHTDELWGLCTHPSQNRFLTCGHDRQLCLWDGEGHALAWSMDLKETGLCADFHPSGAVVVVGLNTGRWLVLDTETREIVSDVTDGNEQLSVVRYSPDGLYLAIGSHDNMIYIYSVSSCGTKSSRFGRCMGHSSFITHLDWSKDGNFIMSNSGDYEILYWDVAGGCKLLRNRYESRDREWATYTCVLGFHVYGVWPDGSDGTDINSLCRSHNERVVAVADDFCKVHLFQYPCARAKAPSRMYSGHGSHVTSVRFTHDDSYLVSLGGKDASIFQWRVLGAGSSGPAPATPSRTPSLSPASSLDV

Chains of the proteins cited; added tags and fusions are not shown.
UniProt P62259: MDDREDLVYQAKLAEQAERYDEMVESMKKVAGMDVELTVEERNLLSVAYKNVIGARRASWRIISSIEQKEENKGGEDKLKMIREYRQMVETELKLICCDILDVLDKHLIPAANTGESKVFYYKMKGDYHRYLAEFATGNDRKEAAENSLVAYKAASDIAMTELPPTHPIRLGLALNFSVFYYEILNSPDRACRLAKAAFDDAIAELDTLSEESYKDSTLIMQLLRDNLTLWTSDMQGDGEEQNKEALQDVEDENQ
UniProt P63168: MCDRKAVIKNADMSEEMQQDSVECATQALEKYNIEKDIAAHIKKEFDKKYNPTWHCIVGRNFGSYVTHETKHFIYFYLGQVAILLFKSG
UniProt P32958: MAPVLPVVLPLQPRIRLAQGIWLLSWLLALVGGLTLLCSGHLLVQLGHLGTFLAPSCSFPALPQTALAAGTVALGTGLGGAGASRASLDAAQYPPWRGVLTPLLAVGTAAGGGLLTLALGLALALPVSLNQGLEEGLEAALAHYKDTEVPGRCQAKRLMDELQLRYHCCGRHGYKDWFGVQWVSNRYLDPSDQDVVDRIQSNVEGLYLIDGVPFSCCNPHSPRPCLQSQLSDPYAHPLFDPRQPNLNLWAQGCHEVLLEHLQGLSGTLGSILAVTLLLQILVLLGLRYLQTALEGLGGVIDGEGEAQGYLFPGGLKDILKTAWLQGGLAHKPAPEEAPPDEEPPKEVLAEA

T2: EML3 TQT86AAA mutant protein (custom made Eml3^TQT86AAA construct) (mouse) (UniProt Q8VC03)
T2 sequence: T1 sequence with T86A, Q87A, T88A

B1: 14-3-3 gamma (YWHAG) expressed in transfected cells (protein, UniProt P61982 1-247)
chain: MVDREQLVQKARLAEQAERYDDMAAAMKNVTELNEPLSNEERNLLSVAYKNVVGARRSSWRVISSIEQKTSADGNEKKIEMVRAYREKIEKELEAVCQDVLSLLDNYLIKNCSETQYESKVFYLKMKGDYYRYLAEVATGEKRATVVESSEKAYSEAHEISKEHMQPTHPIRLGLALNYSVFYYEIQNAPEQACHLAKTAFDDAIAELDTLNEDSYKDSTLIMQLLRDNLTLWTSDQQDDDGGEGNN

How the values were obtained:
[1] = biological target: T1, EML3 (untagged mouse Eml3 expression construct) (mouse); assay: co-IP; HEK293T cells co-transfected with expression constructs; lysis in 1% NP-40 buffer; immunoprecipitation with EML3 rabbit polyclonal antibody and anti-rabbit IgG Dynabeads; immunoblotting
[2] = biological target: T2, EML3 TQT86AAA mutant protein (custom made Eml3^TQT86AAA construct) (mouse); assay: as above
[3] = biological target: T1, EML3 (untagged mouse Eml3 expression construct) (mouse); assay: co-IP; co-immunoprecipitation in transfected cells; data not shown

Molecule	binding [1]	binding [2]	binding [3]
Ywhae-FLAG (from UniProt P62259 1-255)	binds	–	–
Dynll1-FLAG (from UniProt P63168 1-89)	binds	no binding	–
ROM1 (Rod outer segment membrane protein 1), untagged (from UniProt P32958 1-351)	no binding	–	–
B1	–	–	binds
